Reference: PubChem BioAssay AID743279 (National Center for Advancing Translational Sciences (NCATS), 2014)
The campaign covered roughly 360,000 compounds. About 17,000 (4.7%) were called active. This list was built around the results that the source calls inconclusive (neither active nor inactive); the mix of calls is not that of the screen. Rule as the data show it: active = activity change below about -50%; inconclusive = mostly about -30% to -49%; inactive = weaker than that.

experiment: qHTS for Inhibitors of Inflammasome Signaling: IL-1-beta AlphaLISA Primary Screen; settings: THP-1 LPS/ATP IL-1B secretion, 16 h; at 57.5 µM, hits give low values
How it was run: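 Secreted IL-1B measured by AlphaLISA bead assay after 16 h compound exposure of THP-1 cells; compounds (final up to 57.5 uM) added 1 h before LPS (250 ng/mL) and ATP (1.25 mM) stimulation; lower signal means less secretion.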
% is scaled to controls: 0 for no effect and ±100 for the full control effect.

Activity change, active:
Cc1ccc(-c2csc(N3CCN(c4cc5c(cc4Cl)nc(-c4ccncc4)n5CCN4CCCCC4)CC3)n2)cc1 -59.1%
Cc1nc([N+](=O)[O-])c(Sc2nc3ccc([N+](=O)[O-])cc3[nH]2)n1Cc1ccccc1 -76%
CCCN(CC(=O)Nc1ccccc1C)C(=O)c1ccc(=O)n(Cc2ccccc2)n1 -87%
CCOc1cccc2cc(C(=O)NCc3ccc(Cl)cc3)c(=N)oc12 -64.7%
CCC(C)c1ccc(NC(=S)NCCn2cc(Br)cn2)cc1 (configuration not stated) -52.3%
Cc1sc(NC(=O)CSC2=NCCS2)nc1-c1ccccc1 -97.3%
COc1cc(CN2CCCC(CO)(Cc3ccccc3C)C2)cc2c1OCO2 (configuration not stated) -62.8%
Cc1cc(C)c2nc(SCC(=O)NCC3CCCO3)c(C#N)cc2c1 (configuration not stated) -51.2%

Activity change, inconclusive:
COc1cc(/C=N/OCC(=O)NC2CCCCC2C)ccc1OCc1ccc(Cl)cc1 (configuration not stated) -43.6%
O=C(c1ccccc1F)N1CCN(c2ccc([N+](=O)[O-])cc2-n2cccc2)CC1 -42.1%
CCO[C@@H]1OC(C(=O)N2CCN(Cc3ccc4c(c3)OCO4)CC2)=C[C@H](c2ccc(Br)cc2)[C@H]1CCCO -41.1%
C#CCOCCOCCOCCNc1nc(N2CCN(C(=O)CCCCCCCCCCNC(=O)[C@H](CCCCN)n3cc(CCO)nn3)CC2)nc(N2CCN(C(=O)CCCCCCCCCCNC(=O)[C@H](CCCCN)n3cc(CCCC(=O)O)nn3)CC2)n1 -39.8%
COc1ccc(Br)cc1C(=O)Nc1cccc(-c2nnc(-c3ccco3)o2)c1 -42.9%
CC1CCCCN1C(=O)CN1CCN(S(=O)(=O)c2ccc(Br)cc2Cl)CC1 (configuration not stated) -49.6%
O=C(NCc1ccccc1Cl)c1ccccc1Oc1ccccc1 -36.2%
CN(CC(=O)Nc1cccc(C(F)(F)F)c1)Cc1ccccc1 -32%
COc1cccc(C(=O)COc2cccc(NC(=O)c3cccc([N+](=O)[O-])c3)c2)c1 -33.3%
Cc1ccc(N2C(=O)c3cccc([N+](=O)[O-])c3C2=O)cc1C -38.4%
Cc1ccc(CN2CCN(Cc3cn(C(C)C)c4ccccc34)CC2CCO)o1 (configuration not stated) -32.6%
CCN1C(=O)[C@@H]2[C@@H](c3ccc(SC4CCCCC4)c(OC)c3)N3CCCC[C@@]3(C(=O)OC)[C@@H]2C1=O -43.2%
NC(=O)[C@H]1CC2(CC(c3cccc(NC(=O)COc4ccc(Cl)cc4)c3)=NO2)CN1C(=O)c1ccc(Cl)cc1 (some centres not stated) -38.8%
Cc1cc2c(C)cc(=O)oc2c2c1NCCC2 -32.6%
Cc1ccc(NC(=O)Cc2ccc3c(c2)CCCC3)cc1C -40%
S=C(NCc1ccc2c(c1)OCO2)Nc1ccc(-c2nc3ccccc3[nH]2)cc1 -37.4%
O=C(/C=C/c1cccs1)N1CCC2(CC1)Oc1ccc(F)cc1C(=O)C21CC(c2ccccc2)=NO1 (configuration not stated) -32.3%
COc1ccc(NC(=O)c2cc(C)no2)cc1 -32.7%
CN(C)CCn1c2c(c(SCC(=O)Nc3cccc4ccccc34)nc1=O)CCC2 -31.2%
CCC(=O)Nc1ccc(C(=O)N/N=C/c2cc(Br)c(OC)cc2OC)cc1 -33%
NC(Cc1ccc(F)cc1)c1csc(Nc2nncc3ccccc23)n1 (configuration not stated) -36%
O=C(Nc1cccn(Cc2c(Cl)cccc2Cl)c1=O)C1CC1 -33%
CCn1c(=S)sc2c(=O)n(CC(=O)Nc3cccc(Cl)c3)c(C)nc21 -35.4%
CC(C)C[C@H]1CNC(=S)N1C[C@H]1CCCN1C[C@H](Cc1ccc(O)cc1)N1C[C@H](Cc2ccc(O)cc2)N(CCc2ccccc2)C1=S -45.2%
CN(C)c1ccc(C(=O)C=Cc2ccc([N+](=O)[O-])cc2)cc1 -33.6%
COc1ccc(C(C[N+](=O)[O-])c2c(C)[nH]c3ccccc23)cc1OC (configuration not stated) -30.8%
CCn1cc(C(=O)NCCC(=O)OC)c(=O)c2cc3c(cc21)OCO3 -35.9%

Activity change, inactive:
O=C1COc2cc(O)ccc21 2.51%
O=C(c1ccc(Cl)s1)N1CCN(c2ncccn2)CC1 -1.55%
O=C(CN1CCN(c2ccccc2O)CC1)Nc1cc([N+](=O)[O-])ccc1Cl 26.9%
Cc1ccc(C(=O)N/N=C/c2cccc(OC(=O)/C=C/c3ccco3)c2)cn1 -1.72%
CC(=O)c1cccc(CN(C)CC2CCCN(CCc3ccccc3C)C2)c1 (configuration not stated) -11.6%
CC1CCCN(C2=NC(=O)/C(=C/c3cn(-c4ccccc4)nc3-c3cccc(S(=O)(=O)N(C)C)c3)S2)C1 (configuration not stated) -17.3%
CC1CN(Cc2ccccc2Cl)CC(C)O1 (configuration not stated) 24.8%
O=C(CSc1nc2c([nH]c3ccccc32)c(=O)n1-c1ccccc1)NCC1CCCO1 (configuration not stated) -20.8%
CCOC(=O)C1CCN(C(=O)Cn2c(=O)oc3cc(S(=O)(=O)N4CCCC4)ccc32)CC1 6.96%
Cc1ccc(S(=O)(=O)N2CCN(C(=O)c3cc(-c4cccs4)nn3-c3ccccc3)CC2)cc1 0%
Cc1cc(Br)ccc1NC(=O)CNC(=O)CN(C)C1CCS(=O)(=O)C1 (configuration not stated) -8.44%
CC(C)CC(=O)N1CCN(Cc2ccc(Br)cc2)CC1 2.87%
O=C(CN1CCC(C(=O)c2ccc(F)cc2)CC1)Nc1ccccc1Cl -9.31%
COc1ccc(OC)c(/C=N\NC(=O)CSc2nnc(CCCc3ccc(OC)c(C)c3)o2)c1 -17.9%
c1ccc(N=NC2=NN(c3ccccc3)CS2)cc1 -16.8%
CCOC(=O)C1CCCCN1S(=O)(=O)c1cc2c(cc1C)NC(=O)CO2 (configuration not stated) 46.7%
CCOC(=O)C1CCN(S(=O)(=O)c2cc(C(=O)OC)n(C)c2)CC1 20.4%
